# Test results published in publication PMC10726135.
# Some of the results follow. At the low end of the ranking, values are background and their order means little. The protein was read in a cell extract, so binding may be indirect.
# Molecular target: T1, HNF4alpha8 (COS-7 nuclear extract) (UniProt P41235-5)
# T1 sequence: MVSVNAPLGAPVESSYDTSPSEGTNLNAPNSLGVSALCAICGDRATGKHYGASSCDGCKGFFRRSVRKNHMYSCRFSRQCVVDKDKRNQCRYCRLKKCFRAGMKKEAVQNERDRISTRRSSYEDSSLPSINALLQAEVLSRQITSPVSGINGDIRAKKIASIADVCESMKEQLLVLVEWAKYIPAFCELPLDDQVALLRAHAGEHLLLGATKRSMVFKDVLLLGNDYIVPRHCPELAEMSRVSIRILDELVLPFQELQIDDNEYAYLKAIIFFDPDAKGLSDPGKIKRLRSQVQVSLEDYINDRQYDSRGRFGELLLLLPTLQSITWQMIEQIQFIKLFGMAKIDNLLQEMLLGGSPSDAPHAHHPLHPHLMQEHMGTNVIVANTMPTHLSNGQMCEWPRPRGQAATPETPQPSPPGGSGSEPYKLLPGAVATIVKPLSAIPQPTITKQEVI
# Experiment: protein-binding microarray
# Details: COS-7 nuclear extract on double-stranded Agilent 4x180k PBM; binding buffer, salt, pH and temperature not given; high values mean tight binding; double strand, one strand shown; sequences stand for … in …GCCTAGGGAGATTAGAGTATCGGTCGA
row,Sequence,binding signal (log2 normalized intensity)
1,CGTCCTGTGGCAAAGGTGAATGACCCCTCC,5.34
2,GAGCTGAAACAGTCTGATTCTAGGGCCCAT,-1.35
3,AAATCCCCCACCATTGTTATCTGATCAAAT,3.42
4,CTGCCTCAAACAGCTTCGCCTCCTCCAAGC,-1.28
5,CTATTAGGTCTTTGAAGTTGTCTTATCACC,1.2
6,ACAATGTGATTTATGAAGGGGGGTGGGGAG,-1.36
7,CAGACTGCATTTTCATCTTGCCTTTGCTCC,1.4
8,TTAGGAAAGAGACATCTGGGAACAAGTTCT,-1.25
9,AAAGGAGGCAGAGACTGCCCTGAGCCGCCA,-1.25
10,AATGCAGGCAATGAATAGAACAAATAAAGT,-1.38
11,TTTATCTACCTTTGTACCTTTAGTATCTAG,3.32
12,AGTTTCAGGTTCAAATCTAAACCTAGCAGC,-1.31
13,GTTTCAGCCCTAAAGACCACTGGGCTTTCA,-1.32
14,AGTTTGGGCTGTGAGAAACATCCTGCCTAA,-1.31
15,CCTGGGTTAAAGTCCGTTACAGACAGGCAG,3.95
16,GTTAACAGAATGAACAGCTCTTCTTGCCAG,-1.23
17,TTGGACAGGGTGACGTCATTGGAAATCCGA,0.187
18,ACTGATCTCTGGCTTGATCCCTGAACTTTG,4.37
19,CAGCACCATCCTACAGGGTATGAATTTAAC,-0.872
20,AGTCAAGGCCAAAGGTTAAAAATAAGTTCT,4.29
21,CCAATAACTGCTTCTTTTATGGTGCATTCC,1.53
22,GAATCAGGTTTTCAGAAGGTAGGTAAGGGG,-0.7
23,CCAAAGTCCTTCCCAAGTCCTGCATGTGTT,1.72
24,AGGGAGGGCCAAGCCCTCCATCCAACCATT,3.94
25,GAGGGGAGGAGGGTCAAAACTTCAGACTAT,-0.34

row,Sequence,binding signal (log2 normalized intensity)
1,TAGATAAGTCCACAAAGATAAGAAAGAATC,-1.32
2,ATGGATGAATTTTATCACTCCATCAAGGGG,-1.28
3,AGGCACACTCTATTATGTAAAACAGACAGG,-0.412
4,AGCAATGCTGAGTATGCAGCGGGCAGCCCG,-1.26
5,CATCCCCCCAAAGGCTCTCTGTTGACCACC,3.84
6,GACTCCCCAGCAGGCAGACTGGCTCCGCTG,-1.3
7,TAAAATGGACTTTGTGGGCCAAAAGCAGCC,2.65
8,TAGCATTTTGCAGAGACGGCAAGCCATAGT,-1.36
9,GAGACCAAATATTAGAACAAACGACGCTCC,-1.32
10,TAATCAACACTGACAGATTCCTGCTAACAG,-1.28
11,TAAACTAAGATATTGGTAAGTTAAGTAACT,-0.317
12,GGTTTGAATCCCGGGAATCCTCAGCCTTCT,-1.31
13,AAGATGAAAGACGAAAGGGACTTTGATCTT,7.26
14,GCCAGATTGAGAAACACATTCTTAGACAAC,-1.17
15,CCCAGAGGTCAAACTATCTGAGGTGGTCCA,1.8
16,CTGGGGCCGGGAGCAGGGAGCGAGACGCTG,-1.34
17,AAGGATTATTACATGTTTACCCACATACAA,0.38
18,TTACTGGTGAACATAAATCGCAAATATTTA,-1.22
19,AAAAGAAGAAAAAACAGGTGTTCTTTCCCT,-1.29
20,GCATGGTTTACTGAAATAGGTAAGCTGGCC,0.356
21,TGAGTGCTTCAGTCCAAAAAGTGGTGGTGT,1.37
22,TGAAGCGACCCCTCGAGGCAACCTTTGACC,9.25
23,TCCTGAGCAGTCCCTTCCCCCCTCCTCATT,4.55
24,CAAGGAAAACTACACTCTTGCTAAACCCTC,-1.38
25,ACAGATGTAGACATTGGAATGCGGGCTCCA,0.955

row,Sequence,binding signal (log2 normalized intensity)
1,ACCCACCCACACCTCCCCTTTGTTTAACTT,2.79
2,ATAAAACACTGACATCATCGCAGAAAGCTC,-1.28
3,GTCCTGGCAGGCTTCGAAAAATGGGTCTGG,-1.19
4,ATTCTCCCTGCAGTCCTCTGCTTATCTGGC,0.265
5,GTCAGGAGTACAGGTAGGATCAAGGGTGGA,0.29
6,TTTTAAGTCACCAGATGAGATAGGAGGTCA,2.27
7,AATGTGGGGAGCACATGGCATGATCCCTGA,-0.163
8,ACATGATAGGTTACCTTGACCAAAGTACAG,3.05
9,GGATGGAATTTAAAACATCTTTGAAGAGCA,-1.22
10,GGAGTCTGGCTGCCCTGGGGTGACAGCTTT,0.341
11,GACTGTCTTAGGAAAGAACAGGTCAAAGGT,5.06
12,AATATCTCAGCACATGGCAGTGTACACTAG,0.805
13,GCGCAGACGGCGGATCCTCCCAGCCTGGAG,-1.44
14,CTGAACATGGTGACACACACCTCCAGCCAC,-1.38
15,AAGGCCAGAGAAAGAGAGAGTTAGTTCTGC,-1.32
16,CGGGTGAAGGTTAAATAGCTCATTAAGCTT,-1.2
17,GGCTGTTTGGGAACCGTTAGCAACCGGAAG,-1.27
18,TCACAGGAATGTTGGCAGCATCGTGTTGGG,0.111
19,GTAGGAAGGCTTTGAAGTCTGGTGGCAAGT,-0.389
20,CTCTCCTGAGGCAAGTCTCTTTTAGGCTGT,0.363
21,CACTAATTAACTGAGCCTCAGAACCATTTG,-1.31
22,CATACTCAAAGAATTTAACACCAGATAAAC,-1.2
23,GCCTTTAGGGCCCCCTGTGATTACTTCCAC,1.67
24,GAAGCTGGTAGCATGGCTCAGTCCAAGTCC,0.896
25,CAGTGAGACAGAAGTAAAACAGGTAGAGAG,-1.36

row,Sequence,binding signal (log2 normalized intensity)
1,ATATACTGTGTATACAAAGATCAGTGTACT,1.41
2,TGGGGACGCCCACTGCTTTGTTCCCTGGCT,-1.42
3,ATCTCAAATAGCTGGGTCTCACTCTGACCC,3.93
4,CTGCTGGTTTTTGTCAAAGATAGTTGTAGT,1.62
5,CTTCAGCCTCCCGAGTAGTTGGGTCAACAG,2.04
6,CAGGGTCGGAATGTCTGGGCAAAGGGGAGG,-1.16
7,AGTGGCAACCCTTGACCCCAGTAACAAAGG,5.17
8,GTTAGGAAACACTCTGTTTGTAAAGTCTAC,0.618
9,ATAGCTGTTCATTAGACTCAGGGAACTCCC,0.305
10,CAAACAGACCTCCCCCAACTTACTTAGTGG,2.07
11,AGGCTCCCTGCTGCGGAGAGTTCCCTTGGA,-0.846
12,GCAATTACTCAATAACCACATGAATACACA,-1.18
13,GCAGGCAGGGACTTTGGCCCACGGTCCTTT,3.51
14,GGGGTCTAGAACAGCTCCTTTGAAGCTTCG,-1.3
15,AAACTGAGATCTAAGCGATAAGGAGGAAGG,-1.34
16,GACCGGTTCCGCGGTCCGCAGCGCTGGTGG,-1.24
17,GGTAATCACCAAACTTCACAATGGGCCCCA,-1.37
18,GTCTAACCGCAGCAAGACACTTCCAGCCAA,-1.3
19,ATAATGCCAGGCAGGAAGGAGCCTGCTTTG,-1.33
20,CAGTATTGATGTGAGGGTAGGAGCCTAGCT,-1.34
21,AAATGTGAATGGACTCTGCCCTTAGCAGTG,5.06
22,CACCAGAGGGAACGCCCGACGCGAAGGCAG,-1.08
23,AACTGTCCAGGCTGCACAGTGGGGAGGGCA,-1.31
24,GACCTTTCTTTATGGACCTTGTCCCTGGAT,5.2
25,CACTTCTCTCTCCAAGGCACAGAGAAGAAT,-1.27

row,Sequence,binding signal (log2 normalized intensity)
1,AATAGGGGCTGGGTAAAATGAGAATGAGAC,-1.21
2,TTGCAGTGGCAAGGCAAAAGAGACAGGACT,-1.33
3,AACCTCCTCCAGGTTCTCATACCTTCTGCT,-1.38
4,AGTTGTTGTGAGAGTGAGGTGACTTGTCCT,1.74
5,TAAGATTTGGAAAATATTGCCAATATCTGC,-1.32
6,CTGCTGGCTGAGCATCACCAGTGCAGCTGA,-1.28
7,GAAGAAAACAATGACCTCTGCACCCTTCCC,5.13
8,TCTGGTAAATTTCTAACACTCCCCAGGACA,2.81
9,TCACAATGGGGCATGACTTGTTATCACCTG,0.285
10,CCTTTGTCTCCAGGCAAACTACAGTTTCTG,-0.771
11,AGAGCAGGGCCCGAGGCCTTGAGCATACAA,-1.22
12,AGGAAGCATCCTATAGGCCTATAATTAGGT,-1.07
13,GTCCATCCTGTCTCACCAGACCAAGAGCTT,-1.04
14,CTGCTCTGTTTTCTTTCGGTCACCCACACA,1.59
15,TCTCTTCTTCCCCTCCTTCAGGTCAAGAGG,2.95
16,TCCTCTGGATACCCTTCCCCCCAAGGCTTC,5.26
17,TAGGCCAGGCGGAGCACACCAGGCCCTCGG,-1.13
18,AATGATCTTGGCTGCTTTAGACATGAGATA,-0.654
19,CTGCCTCTTCAGGAGGCACTGATAAGCGTA,-1.34
20,GGACAGGAGCTCATACCTCTTACCAGATAG,-1.28
21,AGCGGGGGACCGAGAGCCGCCGCCGTGGGA,-1.23
22,TCCCCTGACAGCATGTTCGGCTGAGACCTG,0.595
23,TGGTGCAAATACCATCCCCAGAGCCGGAGC,3.04
24,AAATACACAGGTAAACATTTGCCTTTAGGG,-0.993
25,TTGGTGACCAGTCTGCCTGACTCCAGAGTC,-1.26

row,Sequence,binding signal (log2 normalized intensity)
1,AAGCAGGACAGCAGAGTGGAGGCCAGCGCC,-1.4
2,GAATATTCAGATATTCCTGGAATGACAAGA,0.948
3,AAAGGTCATTTCTGCTTGCAACCAAAGGAG,1.78
4,AGAGTTAGGGCCTTGCTATGGAGTGGACTT,3.91
5,GTCCAGACACAAAGAGACAAAGCTTTGAAG,-1.07
6,CGTATTATCTTATCTCCTCTGTAGGGCAGC,1.12
7,TAGCTTGGTGCAGGGGCGGGGCCGCGCGTC,-1.31
8,GTGTTCCAGAGCCTCCAAAGTCCGCTTGCC,1.73
9,CTCCACTCTCATAAAAGAGGCCAATTTCTT,-0.623
10,ATAGTTTGACTTTCTCTCTTCCTATTCAGA,-0.919
11,TCTGCCATCTACTAAGTGCTTAGTATGTGC,0.009
12,TGAGACTTTCCTGTTGGGGAGCAAAGGTTA,6.1
13,CATAATTGCAAAATCCTTAGCAAATAGAGA,-1.46
14,AGGTGTTCTTTCCCTCCAGCCCACTTACCA,1.97
15,TCTGGATGGCTGAGCTGTAAGGACATAAGC,0.241
16,TTGGAAAAAAAAAAAAAAAAAAGAACACAG,-1.27
17,GCATGCCATTTTGCAATTGACAAATGGCTT,-1.28
18,ACTGCAACCTGATAAGATTTTAGAAGTCAC,-1.21
19,GTGTCAGAGAAGGAGCCAGAGCTTTGGGAA,-1.34
20,CATACAGGCCAGCTGTCTGGTTTGACCTTA,5.8
